Source: the supplement of paper PMC4604168 (melanoma cell lines)
The list shows a part of the results. Repeats are few or missing, and single values can be far off.

What was measured:
Assay in all cases: cell count relative to DMSO control; melanoma cells; higher = more viable cells
Conditions in all cases: library dose: standard library concentration; 72 h
[1] = system: G361
[2] = system: IPC-298
[3] = system: IST-MEL1
[4] = system: LB2518-MEL
[5] = system: LOXIMVI
[6] = system: MEL-HO
[7] = system: MZ2-MEL
[8] = system: MeWo
[9] = system: RPMI7951
[10] = system: RVH-421
[11] = system: SkMel28
[12] = system: SkMel2
[13] = system: SkMel30
[14] = system: SkMel5
[15] = system: UACC257
[16] = system: UACC62
[17] = system: WM115
[18] = system: WM1716
[19] = system: WM1745
[20] = system: WM3526
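Further: cells treated in 1,536-well plates, then fixed and DAPI-stained, with nuclei counted from automated high-throughput microscope images.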

Row | Compound | cell count [1] [%] | cell count [2] [%] | cell count [3] [%] | cell count [4] [%] | cell count [5] [%] | cell count [6] [%] | cell count [7] [%] | cell count [8] [%] | cell count [9] [%] | cell count [10] [%] | cell count [11] [%] | cell count [12] [%] | cell count [13] [%] | cell count [14] [%] | cell count [15] [%] | cell count [16] [%] | cell count [17] [%] | cell count [18] [%] | cell count [19] [%] | cell count [20] [%]
1 | Cn1nnc2c(C(N)=O)ncn2c1=O [temozolomide] + O=C(Nc1ccccc1)c1cc([N+](=O)[O-])ccc1Cl [GW9662] (first compound 10 µM, partner dose 10 µM) | 89.8 | 81 | 90.1 | 63.3 | 81.3 | 82.1 | 82.1 | 72.6 | 81.1 | 80.5 | 31.9 | 86.9 | 69.5 | 80.8 | 75.9 | 70.1 | 60 | 57.4 | 69.1 | 82.7
2 | Cc1cc(N2CCOCC2)cc2[nH]c(-c3c(NC[C@@H](O)c4cccc(Cl)c4)cc[nH]c3=O)nc12 + CN(NC(=O)CC(=O)NN(C)C(=S)c1ccccc1)C(=S)c1ccccc1 [STA4783] (first compound 1 µM, partner dose 0.03 µM) | 27 | 60.8 | 31.5 | 26.7 | 76.2 | 83.4 | 109 | 21 | 108 | 52.7 | 41.6 | 53.7 | 67.4 | 57.2 | 93 | 28.7 | 27.6 | 107 | 17 | 103
3 | Cc1cc(N2CCOCC2)cc2[nH]c(-c3c(NC[C@@H](O)c4cccc(Cl)c4)cc[nH]c3=O)nc12 + O=c1cc(-c2cccc3c2Sc2ccccc2S3)oc(N2CCOCC2)c1 [KU55933] (first compound 1 µM, partner dose 5 µM) | 54 | 82.1 | 94.5 | 84.3 | 97.6 | 78.8 | 88.6 | 73.1 | 62.5 | 74.8 | 44.6 | 65.6 | 87.6 | 86.9 | 93.8 | 99.2 | 78.1 | 84.9 | 54.1 | 62.1
4 | O=C(Nc1cc(C(F)(F)F)cc(C(F)(F)F)c1)c1cc(Cl)ccc1O + Cn1c(=O)n(-c2ccc(C(C)(C)C#N)cc2)c2c3cc(-c4cnc5ccccc5c4)ccc3ncc21 [NVP-BEZ235] (first compound 0.08 µM, partner dose 0.02 µM) | 79.9 | 80.9 | 78.6 | 85.3 | 73.2 | 71.5 | 62.6 | 78.3 | 82.4 | 74.3 | 65 | 71 | 95.4 | 81.2 | 87.4 | 64.7 | 76.8 | 67.6 | 75.3 | 73.9
5 | Cn1nnc2c(C(N)=O)ncn2c1=O [temozolomide] + O=C(O)C(=O)Nc1sc2c(c1C(=O)O)CCNC2 [TCS401] (first compound 10 µM, partner dose 8.33333 µM) | 104 | 71.9 | 82.2 | 82.6 | 175 | 86.2 | 77.5 | 90.5 | 109 | 164 | 37.2 | 104 | 72 | 66.7 | 80 | 78.6 | 81.3 | 56.3 | 85.2 | 85.4
6 | O=C(Nc1cc(C(F)(F)F)cc(C(F)(F)F)c1)c1cc(Cl)ccc1O + NCC(=O)Nc1ccc(-n2nc(C(F)(F)F)cc2-c2ccc3c(ccc4ccccc43)c2)cc1 [OSU03012] (first compound 0.08 µM, partner dose 5 µM) | 60.6 | 49.3 | 66.3 | 77.3 | 62.4 | 76.7 | 85.2 | 73.3 | 73.9 | 67.7 | 23.5 | 32.3 | 39 | 49.3 | 75.1 | 64.9 | 69.2 | 77.7 | 81.5 | 49.2
7 | Cc1cc(N2CCOCC2)cc2[nH]c(-c3c(NC[C@@H](O)c4cccc(Cl)c4)cc[nH]c3=O)nc12 + OCCn1cc(-c2cnc3nnn(Cc4ccc5ncccc5c4)c3n2)cn1 [PF04217903] (first compound 1 µM, partner dose 5 µM) | 81.5 | 101 | 92.1 | 96.5 | 88.1 | 114 | 117 | 75 | 68.5 | 118 | 114 | 77.3 | 82.5 | 76.7 | 92.9 | 101 | 67.5 | 87.9 | 70.9 | 70.8
8 | O=C(O)c1ccc2c(c1)nc(Nc1cccc(Cl)c1)c1ccncc12 + Cc1cc(N2CCOCC2)cc2[nH]c(-c3c(NC[C@@H](O)c4cccc(Cl)c4)cc[nH]c3=O)nc12 [BMS536924] (first compound 2 µM, partner dose 1 µM) | 62.2 | 79.9 | 64.9 | 86.3 | 41.1 | 48.9 | 82.9 | 79.2 | 76.1 | 82.4 | 59.7 | 66.8 | 60.4 | 82.2 | 100 | 104 | 111 | 94.2 | 61.3 | 48.3
9 | O=C(O)[C@@H]1[O][Sb](=[O])([O][Sb]2(=[O])[O][C@H]([C@H](O)CO)[C@H](O)[C@H](C(=O)O)[O]2)[O][C@H]([C@H](O)CO)[C@@H]1O (stereo not given in full) [stibogluconate] + CNC(=O)c1cc(Oc2ccc(NC(=O)Nc3ccc(Cl)c(C(F)(F)F)c3)cc2)ccn1 [sorafenib] (first compound 10 µM, partner dose 2 µM) | 78 | 83.5 | 96 | 84.8 | 146 | 77.4 | 86 | 81.6 | 96 | 107 | 63.3 | 87.9 | 95 | 66.9 | 94.9 | 107 | 80.4 | 105 | 59.6 | 61
10 | O=C(O)c1ccc2c(c1)nc(Nc1cccc(Cl)c1)c1ccncc12 + CC1(C)NC(=O)N(c2ccc([N+](=O)[O-])c(C(F)(F)F)c2)C1=O [nilutamide] (first compound 2 µM, partner dose 5 µM) | 72.5 | 96.6 | 73.9 | 126 | 70.1 | 56.4 | 85.3 | 82 | 86.6 | 92.5 | 98.5 | 77 | 76.1 | 84.7 | 109 | 77.7 | 95.5 | 114 | 80.2 | 75.5
11 | O=C(O)c1ccc2c(c1)nc(Nc1cccc(Cl)c1)c1ccncc12 + Cc1nc(Nc2ncc(C(=O)Nc3c(C)cccc3Cl)s2)cc(N2CCN(CCO)CC2)n1 [dasatanib] (first compound 2 µM, partner dose 0.02 µM) | 43.8 | 50.4 | 46.5 | 89.7 | 9.38 | 39.2 | 29.7 | 66.3 | 24.6 | 47 | 34.5 | 74.8 | 63.2 | 46.1 | 69.8 | 59.7 | 45 | 37.8 | 35.8 | 63.6
12 | O=C(O)[C@@H]1[O][Sb](=[O])([O][Sb]2(=[O])[O][C@H]([C@H](O)CO)[C@H](O)[C@H](C(=O)O)[O]2)[O][C@H]([C@H](O)CO)[C@@H]1O (stereo not given in full) [stibogluconate] + OCCn1cc(-c2cnc3nnn(Cc4ccc5ncccc5c4)c3n2)cn1 [PF04217903] (first compound 10 µM, partner dose 5 µM) | 85.4 | 87.2 | 98.9 | 86.2 | 75.5 | 92 | 102 | 80.7 | 65.9 | 103 | 87.7 | 84.2 | 80.2 | 66.5 | 92.5 | 89.3 | 96.9 | 74.8 | 65.3 | 74.2
13 | O=C(Nc1cc(C(F)(F)F)cc(C(F)(F)F)c1)c1cc(Cl)ccc1O + O=c1[nH]nc(Sc2ncc([N+](=O)[O-])s2)n1-c1ccc2c(c1)OCCO2 [BI78D3] (first compound 0.08 µM, partner dose 1 µM) | 89.1 | 81.4 | 95.1 | 93.1 | 138 | 78.7 | 94.9 | 78.1 | 101 | 122 | 94.8 | 91.5 | 80.7 | 87.3 | 100 | 73.1 | 86.4 | 93.8 | 78.7 | 88.3
14 | O=C(O)[C@@H]1[O][Sb](=[O])([O][Sb]2(=[O])[O][C@H]([C@H](O)CO)[C@H](O)[C@H](C(=O)O)[O]2)[O][C@H]([C@H](O)CO)[C@@H]1O (stereo not given in full) [stibogluconate] + O=C(O)c1ccc(-c2c[nH]c3ncc(-c4ccccc4)cc23)cc1C1CCCC1 [GSK650394] (first compound 10 µM, partner dose 0.8 µM) | 58.2 | 92 | 76.6 | 91.5 | 120 | 74.8 | 89.3 | 98.5 | 84.5 | 91.4 | 71.1 | 70.8 | 98.1 | 96.1 | 86.2 | 98.5 | 86.3 | 86.6 | 145 | 101
15 | O=C(O)[C@@H]1[O][Sb](=[O])([O][Sb]2(=[O])[O][C@H]([C@H](O)CO)[C@H](O)[C@H](C(=O)O)[O]2)[O][C@H]([C@H](O)CO)[C@@H]1O (stereo not given in full) [stibogluconate] + NCC(=O)Nc1ccc(-n2nc(C(F)(F)F)cc2-c2ccc3c(ccc4ccccc43)c2)cc1 [OSU03012] (first compound 10 µM, partner dose 5 µM) | 73.8 | 54.3 | 70.7 | 83.6 | 84.4 | 85.3 | 93.2 | 113 | 96 | 93.3 | 24.8 | 37.7 | 33.6 | 65.6 | 75.6 | 61.6 | 81.2 | 81.4 | 100 | 39.5
